Assay results taken from US10993436B2 (priority 2016, dated 2021).

System: Xcv (Xanthomonas campestris)
Format: cell-based, Xanthomonas campestris pv. vitians

SMILES: CC1(C)S[C@@H]2[C@H](NC(=O)[C@H](N)c3ccccc3)C(=O)N2[C@H]1C(=O)O [ampicillin]
- ZOC: 0 mm
